Measurements as given in US20260184814A1 (priority 2022, published 2026).

Conditions: at 4° C., following reconstitution in sterile water for injection

With `CCOC(=O)C1=C[C@@H](OC(CC)CC)[C@H](NC(C)=O)[C@@H](N)C1` [Oseltamivir, oseltamivir] as the compound, how does the Stability read?
Its Stability is “Up to 7 days (Study Days −1-5) at 4 °C”.
